The supplement of paper PMC9174493
The list shows a part of the results. Single values of this set are uncertain. Values with irradiation are relative to irradiated vehicle.

The compounds below were run on A549-Dual (assay: NF-kB reporter (SEAP) activity, viability-corrected, relative to vehicle (fold change vs vehicle); higher = more activation of STING-IRF / NF-kB immune response reporter). Conditions: 10 µM; irradiation: none.
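Also: viability correction based on the alamar blue assay, with concentrations leaving 10% survival or less dropped.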

Row | SMILES | NF-kB reporter
1 | COc1ccccc1OCC(O)CN1CCN(CC(=O)Nc2c(C)cccc2C)CC1 (stereo not drawn) [Ranolazine] | 0.581
2 | Cc1ncc(COP(=O)(O)O)c(C=O)c1O [Pyridoxal phosphate] | 0.857
3 | COc1cc([N]([Na])S(=O)(=O)c2ccc(N)cc2)nc(OC)n1 [SulfadiMethoxine sodium] | 0.848
4 | C1CCN2CC3CC(CN4CCCCC34)C2C1.O.O.O.O.O.O=S(=O)(O)O (single isomer, unassigned; (-)) [(-)-Sparteine Sulfate] | 0.833
5 | CN1CCc2cc3c(cc2C(=O)Cc2ccc4c(c2C1)OCO4)OCO3 [Protopine] | 0.991
6 | CC1(C)SC2C(NC(=O)C(N)c3ccc(O)cc3)C(=O)N2C1C(=O)O (stereo not drawn) [Amoxicillin] | 0.924
7 | CCNC1CN(CCCOC)S(=O)(=O)c2sc(S(N)(=O)=O)cc21 (stereo not drawn) [Brinzolamide] | 0.686
8 | CNC(=O)c1cnn(-c2nc(N)c3ncn(C4OC(CO)C(O)C4O)c3n2)c1 (stereo not drawn) [Regadenoson] | 0.567
9 | O.O.OCC1OC(OC2OC(CO)C(O)C(O)C2O)C(O)C(O)C1O [D-(+)-Trehalose dihydrate] | 0.76
10 | CC1(C)SC2CC(=O)N2C1C(=O)OCOC(=O)C1N2C(=O)C(NC(=O)C(N)c3ccccc3)C2S(=O)(=O)C1(C)C.Cc1ccc(S(=O)(=O)O)cc1 (stereo not drawn) [Sultamicillin Tosylate] | 0.916
11 | CCN(CC)CCNC(=O)c1cc(Cl)c(N)cc1OC [Metoclopramide] | 1.03
12 | CC(C)COCC(CN(Cc1ccccc1)c1ccccc1)N1CCCC1.Cl.O (stereo not drawn) [Bepridil hydrochloride] | 0.87
13 | CCOC(=O)c1ccc(N)cc1.Cl [Benzocaine hydrochloride] | 0.617
14 | Cl.Nc1c2c(nc3ccccc13)CCCC2 [Tacrine HCl] | 0.811
15 | CCCC1CC(C(=O)NC(C(C)Cl)C2OC(SC)C(O)C(O)C2O)N(C)C1.Cl (stereo not drawn) [Clindamycin HCl] | 0.941
16 | O=C(O)c1ccccc1C(=O)Nc1ccc(S(=O)(=O)Nc2nccs2)cc1 [Phthalylsulfathiazole] | 0.944
17 | NS(=O)(=O)c1cc(C2(O)NC(=O)c3ccccc32)ccc1Cl (stereo not drawn) [Chlorthalidone] | 1.3

Row | SMILES | NF-kB reporter
18 | Clc1ccc(COC(Cn2ccnc2)c2ccc(Cl)cc2Cl)c(Cl)c1 (stereo not drawn) [Miconazole] | 0.693
19 | CC(C)OC(=O)OCOP(=O)(COC(C)Cn1cnc2c(N)ncnc21)OCOC(=O)OC(C)C.O=C(O)/C=C/C(=O)O (stereo not drawn) [Tenofovir Disoproxil Fumarate] | 1.01
20 | Nc1ccc(S(=O)(=O)Nc2ccccn2)cc1 [Sulfapyridine] | 0.824
21 | C=CCc1ccc(O)c(-c2cc(CC=C)ccc2O)c1 [Magnolol] | 0.571
22 | NS(=O)(=O)c1cc(Cl)c(Cl)c(S(N)(=O)=O)c1 [Dichlorphenamide (Diclofenamide)] | 0.538
23 | CCCCCc1ccc(C)cc1O [Amylmetacresol] | 1.05
24 | CC(C)N(CCCCOCC(=O)NS(C)(=O)=O)c1cnc(-c2ccccc2)c(-c2ccccc2)n1 [Selexipag] | 0.8
25 | CC(CCC(=O)O)C1CCC2C3CC(O)C4CC(O)CCC4(C)C3CCC12C (stereo not drawn) [Hyodeoxycholic acid (HDCA)] | 0.853
26 | CC(OC1OCCN(Cc2n[nH]c(=O)[nH]2)C1c1ccc(F)cc1)c1cc(C(F)(F)F)cc(C(F)(F)F)c1 (stereo not drawn) [Aprepitant] | 0.768
27 | CCOC(=O)/C=C(C)/C=C/C=C(C)/C=C/c1c(C)cc(OC)c(C)c1C [Etretinate] | 0.585
28 | C=C1C(CO)C(O)CC1n1cnc2c(=O)nc(N)[nH]c21.O (stereo not drawn) [Entecavir Hydrate] | 0.869
29 | NC(=O)c1cccnc1 [Nicotinamide (Vitamin B3)] | 0.739
30 | O=P(O)(O)OC(Cn1cncn1)(Cn1cncn1)c1ccc(F)cc1F [Fosfluconazole] | 0.792
31 | Cl.N=C(N)NC(=N)N1CCOCC1 [Moroxydine HCl] | 0.915
32 | CC(CN1CC(=O)NC(=O)C1)N1CC(=O)NC(=O)C1 (stereo not drawn) [Dexrazoxane] | 1.61
33 | CCCc1nn(C)c2c(=O)[nH]c(-c3cc(S(=O)(=O)N4CCN(C)CC4)ccc3OCC)nc12.O=C(O)CC(O)(CC(=O)O)C(=O)O [Sildenafil Citrate] | 0.551
